{
  "source": "PubChem BioAssay AID588795",
  "about": "(National Center for Advancing Translational Sciences (NCATS), 2011)",
  "note": "“And” between values parts separate entries of the source, which are not always exact repeats. Equal values may be shown once. Screen size: about 390,000 compounds; about 1,400 (0.36%) were called active. This list was built around the results that the source calls inconclusive (neither active nor inactive); the mix of calls is not that of the screen. The call rests on the fitted dose curve; in most records, active means well fitted inhibition curve with a large enough effect; inconclusive means small, poorly fitted or top-dose-only effect; inactive means no such curve, though single readings can be large or run the other way. A potency beside an inconclusive call is a rough fit, not a confirmed value. Potency means the concentration at half of the fitted maximal effect; tags describe the fitted curve by direction and shape.",
  "data": [
    {"biological_target": "Flap endonuclease 1 (Homo sapiens) (UniProt P39748)", "sequence (P39748 whole entry, looked up)": "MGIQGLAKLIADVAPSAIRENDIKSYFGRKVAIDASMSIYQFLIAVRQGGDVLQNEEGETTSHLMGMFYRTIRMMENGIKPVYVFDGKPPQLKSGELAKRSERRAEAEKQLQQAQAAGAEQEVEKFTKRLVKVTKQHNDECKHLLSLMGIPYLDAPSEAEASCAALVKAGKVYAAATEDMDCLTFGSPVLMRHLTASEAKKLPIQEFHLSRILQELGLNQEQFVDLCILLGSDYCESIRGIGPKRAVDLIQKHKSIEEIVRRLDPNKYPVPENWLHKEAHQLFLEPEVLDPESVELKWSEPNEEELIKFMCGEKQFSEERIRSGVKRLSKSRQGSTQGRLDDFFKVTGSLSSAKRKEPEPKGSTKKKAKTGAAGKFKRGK", "assay": "qHTS Assay for the Inhibitors of Human Flap endonuclease 1 (FEN1); further: nearly all actives have a fitted effect of over 65% in size.", "settings": "Recombinant FEN1 flap cleavage, fluorescence, 15 min; series mostly up to 114 µM", "summary_of_the_method": "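Enzyme 10 nM, 15 min RT preincubation with compound; start with substrate 50 nM final; reads at 0 and 15 min; qHTS titration, four-parameter Hill fit.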", "values": [
      {"smiles": "COc1ccc(NC(=O)c2c(N)c(C(=O)c3ccc(OC)cc3)n3ccccc23)cc1", "Potency": "inactive"},
      {"smiles": "COc1cc(/C=C2/SC(=S)N(CCC(=O)Nc3ccc(C(=O)O)cc3)C2=O)cc(OC)c1OC", "Potency": "inactive"},
      {"smiles": "Cc1ccc(S(=O)(=O)c2nnn3c2nc(NC2CCN(Cc4ccccc4)CC2)c2ccccc23)cc1C", "Potency": "inactive"},
      {"smiles": "O=c1[nH]c(=S)[nH]c2nc(-c3cccs3)cc(C(F)(F)F)c12", "Potency": "inconclusive: 44.7 µM [inhibitor, partial curve]"},
      {"smiles": "Cc1c(CCC(=O)O)c(=O)oc2cc3occ(-c4ccc(Cl)cc4)c3cc12", "Potency": "inconclusive: 25.1 µM [inhibitor, partial curve, poor fit]"},
      {"smiles": "c1ccc2c(c1)-c1cccc3cncc-2c13", "Potency": "inconclusive: 44.7 µM [inhibitor, partial curve]"},
      {"smiles": "Cc1ccc(S(=O)(=O)Nc2ccc(O)c3cccnc23)cc1", "Potency": "inactive"},
      {"smiles": "CCCC(=O)NC1CCCc2c1cnn2-c1ccc(C)c(C)c1", "note": "(configuration not stated)", "Potency": "inactive"},
      {"smiles": "COc1ccc2[nH]c3c(=O)n(Cc4ccc(C(=O)N5CCCCCC5)cc4)c(=S)[nH]c3c2c1", "Potency": "inactive"},
      {"smiles": "Cc1cccc(C(=O)N2CCc3cc(CNC(=O)COc4ccc(Cl)cc4)ccc32)c1", "Potency": "inactive"},
      {"smiles": "COc1ccccc1NC(=S)NCc1ccc2c(c1)OCO2", "Potency": "inactive"},
      {"smiles": "CCC(CO)Oc1cc(NCc2ccccc2C(F)(F)F)c2ncn(C(C)C)c2c1", "note": "(configuration not stated)", "Potency": "inconclusive: 17.8 µM [inhibitor, full curve, poor fit]"},
      {"smiles": "COc1ccc(NC(=O)Cn2c(=O)n(CCc3ccccc3)c(=O)c3c4c(sc32)CCCC4)cc1", "Potency": "inactive"},
      {"smiles": "Nc1cc(N)cc(N)c1", "Potency": "inconclusive: 56.2 µM [inhibitor, partial curve, poor fit]"},
      {"smiles": "COc1cccc(NC(=O)Nc2nc(SC(C)(C)C)ns2)c1", "Potency": "inconclusive: 79.4 µM [inhibitor, partial curve, poor fit]"},
      {"smiles": "O=C1C2C3C=CC(C4CC34)C2C(=O)N1/N=C/c1ccc(-c2ccc(F)cc2[N+](=O)[O-])o1", "note": "(configuration not stated)", "Potency": "inactive"},
      {"smiles": "Cc1ccc(C(=O)N2CCC3CC2c2cc(-c4ccc5c(c4)OCO5)ccc23)cc1", "note": "(configuration not stated)", "Potency": "inconclusive: 79.4 µM [inhibitor, partial curve, poor fit]"},
      {"smiles": "O=C(NCCc1ccccc1)c1ccc(NC(=O)C2CCC2)cc1", "Potency": "inactive"},
      {"smiles": "Cc1[nH]c2ccccc2c1CC#N", "Potency": "inactive"},
      {"smiles": "CCOc1[nH]c(/N=C/c2ccc(OC)cc2)c(C#N)c1C#N", "Potency": "active: 79.4 µM"},
      {"smiles": "c1ccc2c(c1)c1c(c3ccccc32)CN2CCCC2C1", "note": "(configuration not stated)", "Potency": "active: 17.8 µM"},
      {"smiles": "COc1ccc2ccccc2c1-c1sc(Nc2ccccc2)n[n+]1-c1ccc(F)cc1", "Potency": "inconclusive: 79.4 µM [inhibitor, partial curve, poor fit]"},
      {"smiles": "CCN(CC)CCCC(C)Nc1c2ccc(Cl)cc2nc2ccc(OC)cc12", "note": "(configuration not stated)", "Potency": "active: 12.6 µM and active: 10.6 µM"},
      {"smiles": "COC(=O)c1[nH]c2ccc(C)cc2c1NC(=O)CN1CCCc2ccccc21", "Potency": "inconclusive: 89.1 µM [inhibitor, single point]"},
      {"smiles": "Oc1ccc(NCc2cccc(OCc3ccccc3)c2)cc1", "Potency": "inconclusive: 17.8 µM [inhibitor, full curve]"},
      {"smiles": "COc1cc2sc3cc(NCc4ccc5c(c4)OCO5)ccc3c(=O)c2cc1OC", "Potency": "inconclusive: 79.4 µM [inhibitor, partial curve, poor fit]"},
      {"smiles": "CC1(NC(=O)CCc2nc3sc4c(c3c(=O)[nH]2)CCCC4)CCS(=O)(=O)C1", "note": "(configuration not stated)", "Potency": "inconclusive: 56.2 µM [inhibitor, partial curve, poor fit]"},
      {"smiles": "CCOC(=O)C(C)Sc1ccc2nnc(-c3ccc(F)cc3)n2n1", "note": "(configuration not stated)", "Potency": "inconclusive: 89.1 µM [inhibitor, single point]"},
      {"smiles": "Cc1ccc(O)c(C(CC(=O)NCC2(c3ccccc3)CCCC2)c2ccccc2)c1", "note": "(configuration not stated)", "Potency": "inconclusive: 44.7 µM [inhibitor, partial curve, poor fit]"},
      {"smiles": "Cc1c(C(=O)NCCC2=CCCCC2)sc2ncnc(N3CCCCC3C)c12", "note": "(configuration not stated)", "Potency": "inconclusive: 35.5 µM [inhibitor, partial curve, poor fit]"},
      {"smiles": "CCOC(=O)C1=CN(Cc2cccc(F)c2)S(=O)(=O)N(CC)C1c1ccc(C(F)(F)F)cc1", "note": "(configuration not stated)", "Potency": "inactive"},
      {"smiles": "COc1ccc(S(=O)(=O)N2CCN(c3ccccc3F)CC2)cc1-c1noc(C)n1", "Potency": "inconclusive: 56.2 µM [inhibitor, partial curve, poor fit]"},
      {"smiles": "O=C(O)c1cccc(-c2ccc(/C=C3/SC(=Nc4ccccc4)N(Cc4cccnc4)C3=O)o2)c1", "Potency": "inconclusive: 79.4 µM [inhibitor, partial curve]"},
      {"smiles": "Cc1ccc(-c2cc(C(=O)Nc3ccc(S(=O)(=O)Nc4ncccn4)cc3)[nH]n2)c(O)c1C", "Potency": "inconclusive: 89.1 µM [inhibitor, single point]"},
      {"smiles": "CC(=O)Nc1ccc(C(=O)CSc2nnc(-c3ccccc3)n2-c2ccccc2)cc1", "Potency": "inactive"},
      {"smiles": "CCCCCCCCCCCCCCCC[N+](C)(C)CCN(Cc1ccc(OC)cc1)c1ncccn1", "Potency": "inconclusive: 56.2 µM [inhibitor, partial curve, poor fit]"},
      {"smiles": "COC[C@@H]1NS(=O)(=O)c2ccc(Br)cc2O[C@H]1c1ccccc1", "Potency": "inconclusive: 89.1 µM [inhibitor, partial curve, poor fit]"},
      {"smiles": "O=C(O)c1ccc(CN2C(=O)CSC2=S)cc1", "Potency": "inconclusive: 89.1 µM [inhibitor, single point]"},
      {"smiles": "Cc1ccc(C(=O)Nc2sc3c(c2C(=O)O)CCCC3)o1", "Potency": "inactive"},
      {"smiles": "N#C/C(N=Nc1ccccc1O)=N\\Nc1ccccc1O", "Potency": "inconclusive: 39.8 µM [inhibitor, partial curve]"},
      {"smiles": "Cc1nc2c(-c3ccc(F)cc3)cnn2c(N)c1-c1ccccc1", "Potency": "inconclusive: 15.8 µM [inhibitor, partial curve, poor fit]"},
      {"smiles": "Cc1c(CCC(=O)O)c(=O)oc2cc3occ(-c4ccc(Br)cc4)c3cc12", "Potency": "inconclusive: 44.7 µM [inhibitor, partial curve]"},
      {"smiles": "CSCCC(NC(=O)COc1ccccc1)C(=O)OCCOc1ccc(C)cc1", "note": "(configuration not stated)", "Potency": "inconclusive: 35.5 µM [inhibitor, partial curve, poor fit]"},
      {"smiles": "CC1=C/C(=C\\c2ccc(Br)o2)C(=O)O1", "Potency": "inconclusive: 56.2 µM [inhibitor, partial curve]"},
      {"smiles": "COc1cc(/C=C2\\C(=O)ON=C2c2ccccc2)cc(OC)c1OC", "Potency": "inactive"},
      {"smiles": "O=C1CC(=O)NC(SCC(=O)Nc2ccccc2[N+](=O)[O-])=N1", "Potency": "inconclusive: 50.1 µM [inhibitor, partial curve]"},
      {"smiles": "Cn1c(N)c(C(=O)COC(=O)c2ccc([N+](=O)[O-])o2)c(=O)n(C)c1=O", "Potency": "inconclusive: 15.8 µM [inhibitor, full curve, poor fit]"},
      {"smiles": "Cc1nn(-c2ccccn2)c2c1-c1nc(N)sc1CC2", "Potency": "inconclusive: 2 µM [inhibitor, full curve, poor fit]"},
      {"smiles": "CN(Cc1ccccc1)c1nc(-c2ccc(F)cc2)cc(C(F)(F)F)n1", "Potency": "inconclusive: 79.4 µM [inhibitor, partial curve, poor fit]"},
      {"smiles": "CCN(C(=O)Cc1c(C(=O)O)n(CC)c2ccccc12)c1cccc(C(F)(F)F)c1", "Potency": "inactive"},
      {"smiles": "CC1=C(C)C(=O)C(CCCCC#CCCCC#CCO)=C(C)C1=O", "Potency": "inconclusive: 44.7 µM [inhibitor, partial curve, poor fit]"},
      {"smiles": "Cc1c(OCC(=O)NC2CC(C)(C)NC(C)(C)C2)ccc2c1oc(=O)c1ccccc12", "Potency": "inconclusive: 79.4 µM [inhibitor, partial curve]"},
      {"smiles": "O=C(c1ccco1)N(Cc1ccc(Cl)cc1)Cc1ccco1", "Potency": "inactive"},
      {"smiles": "Nc1[nH]c(=S)nc2nnsc12", "Potency": "inactive"},
      {"smiles": "Cc1ccc(-c2csc(NC(=O)c3ccc(F)cc3)c2C(=O)O)cc1", "Potency": "inactive"},
      {"smiles": "CCOC(=O)C1=C(CSc2nc(CC)c(C)cc2C#N)OC(N)=C(C#N)C1c1ccc(OC)cc1", "note": "(configuration not stated)", "Potency": "inconclusive: 70.8 µM [inhibitor, partial curve, poor fit]"},
      {"smiles": "O=C(NC(=S)Nc1cccc(C(F)(F)F)c1)c1ccc2nonc2c1", "Potency": "inconclusive: 35.5 µM [inhibitor, partial curve, poor fit]"},
      {"smiles": "COCCCn1c(=N)c(C(N)=S)cc2c(=O)n3cccc(C)c3nc21", "Potency": "inconclusive: 79.4 µM [inhibitor, partial curve]"},
      {"smiles": "Cc1c(CCC(=O)O)c(=O)oc2c(C)c3occ(-c4ccc(Cl)cc4)c3cc12", "Potency": "inconclusive: 70.8 µM [inhibitor, partial curve]"},
      {"smiles": "N#Cc1ccc(OCC(=O)Nc2nc(-c3cccnc3)cs2)cc1", "Potency": "inactive"},
      {"smiles": "O=[N+]([O-])c1ccc2nc(-c3ccccn3)[nH]c2c1", "Potency": "inconclusive: 89.1 µM [inhibitor, partial curve, poor fit]"},
      {"smiles": "COCC(=O)N(C)C1(c2nnnn2CCOC(=O)Nc2cccc3ccccc23)CCCC1", "Potency": "inactive"},
      {"smiles": "COC(=O)C(NC(=O)c1ccc(F)cc1)(Nc1ncc(S(=O)(=O)c2ccc([N+](=O)[O-])cc2)s1)C(F)(F)F", "note": "(configuration not stated)", "Potency": "inconclusive: 50.1 µM [inhibitor, partial curve, poor fit]"},
      {"smiles": "COc1ccc(C(=O)NCc2nnnn2-c2ccc(C)c(C)c2)cc1", "Potency": "inactive"},
      {"smiles": "COc1ccc2c(c1)Cc1sc(NC(=O)c3ccccc3Br)nc1-2", "Potency": "inconclusive: 7.94 µM [inhibitor, full curve, poor fit]"},
      {"smiles": "O=C(CSc1nc2ccccc2s1)c1cc2ccccc2o1", "Potency": "inconclusive: 56.2 µM [inhibitor, partial curve, poor fit]"},
      {"smiles": "NC(=O)c1ccsc1NC(=O)c1ccc(N2CCCC2=O)cc1", "Potency": "inconclusive: 79.4 µM [inhibitor, single point]"}
    ]}
  ]
}
